Laboratory results as given in PMC5892938.
This is one part of the list. The source does not settle which construct or isoform was used.

biological target: GST-SBP-ILF3 (Homo sapiens) (UniProt Q12906); experiment: targeted RNA Bind-n-Seq; settings: RBNS binding buffer: 25 mM Tris pH 7.5, 150 mM KCl, 3 mM MgCl2, 0.1% Tween, 0.5 mg/mL BSA, 1 mM DTT; 27 nM protein, 750 pM RNA pool; temperature not stated; high values mean tight binding; sequences stand for … in GGGUAAAAGCGAGGUGAA…CGGGACAAGUAUUAUGGG

Sequence	binding signal (log2 fold change)
GGUGUUGGUGUUGGCCCCUAACACCGAUAC [gtspaired]	-0.424
UUUUUUUUUUGAGAUGGAAGCCAUCUCCAG [tttttgagapaired]	0.141
GUGUGGUGUGUUGGCCUCUAACACAUCGCG [gtspaired]	-0.743
UUUUUUUUUUGAGACUGCAACAGUUUUCUA [tttttgagapaired]	0.0585
UUUUUUUUUUGAGACGGGAGCCGUUUCCGG [tttttgagapaired]	0.728
GUGGUUGGUGUUGGACUCUAACACCGACUA [gtspaired]	-0.83
GUGUGGUGUGUUGGCACCUAACACACUACA [gtspaired]	-0.806
GGUGUGUGUGUUGGAUUCUAACACAUAUAC [gtspaired]	-0.443
GGUUGUGGUGUUGGAUUCUAACACCGCGAC [gtspaired]	-0.569
UUUUUUUUUUGAGAUGGCGGCUAUCUCCAG [tttttgagapaired]	0.817
GGUGUGUGUGUUGGAACCUAACACAUACAC [gtspaired]	-0.278
UUUUUUUUUUGAGAACGUACCGUUCUCCGG [tttttgagapaired]	0.507
UUCUCUUCUCCUCCAGAGGAGGGGGAGGGA [ctspaired]	-0.208
UUUUUUUUUUGAGACCGAUCCGGUCUUCUG [tttttgagapaired]	0.472
UUUUUUUUUUGAGAGGGACCCCCUCUCCAG [tttttgagapaired]	0.574
GUGUGUGGUGUUGGCCCCUAACACCGCGCG [gtspaired]	-0.183
GUUGUGUGUGUUGGUGUCUAACACACACAG [gtspaired]	-0.581
UUUUUUUUUUGAGAGGGAGCCCCUCUCCAG [tttttgagapaired]	0.562
UUUUUUUUUUGAGAUGGGCGCCAUCUCCGG [tttttgagapaired]	0.623
UUUUUUUUUUGAGAUGGGAUCCAUUUCCAG [tttttgagapaired]	0.126
UUUUUUUUUUGAGAUGGACACCAUCUCCAG [tttttgagapaired]	0.349
UUCUCUUCUCCUCCAUGGGAGGGGGAGGGA [ctspaired]	-0.483
UUUUUUUUUUGAGACCGGCACGGUUUCCAG [tttttgagapaired]	0.494
GUGUGGUGUGUUGGCUUCUAACACACUAUA [gtspaired]	-0.681
GGUGUGUGUGUUGGCUCCUAACACAUAUAC [gtspaired]	-0.782
GUGGUUGGUGUUGGAGUCUAACACCAGCCG [gtspaired]	-0.581

Sequence	binding signal (log2 fold change)
UUUUUUUUUUGAGAUGGUCUCCAUCUUCUG [tttttgagapaired]	0.594
UUUUUUUUUUGAGAGGGACCCCCUCUCCUG [tttttgagapaired]	0.822
GGUUGUGGUGUUGGUGUCUAACACCGCAGC [gtspaired]	-0.364
GUGUGUUGUGUUGGCCCCUAACACAGCACG [gtspaired]	-0.337
UUCUCUUCUCCUCCAAUGGAGGGGGAGGGA [ctspaired]	-0.617
UUUUUUUUUUGAGAGUGAUCCACUCUCCAG [tttttgagapaired]	0.148
UUUUUUUUUUGAGACUGCGUCAGUCUCCUG [tttttgagapaired]	0.703
UUUUUUUUUUGAGAGCGACACGUUCUCCAG [tttttgagapaired]	0.294
UUUUUUUUUUGAGACUGGUGCAGUCUUCUA [tttttgagapaired]	0.498
GUGGUGUGUGUUGGCAUCUAACACAUACCG [gtspaired]	-0.901
GUGGUGUGUGUUGGUCCCUAACACACGCCA [gtspaired]	-0.161
UUUUUUUUUUGAGACGGAGACCGUUUUCUA [tttttgagapaired]	0.492
UUUUUUUUUUGAGACUGGGUCAGUCUCCUA [tttttgagapaired]	0.486
UUUUUUUUUUGAGAGCGUGGCGCUCUCCUA [tttttgagapaired]	0.343
UUUUUUUUUUGAGAUGGGCCCCAUCUCCUG [tttttgagapaired]	1.02
UUUUUUUUUUGAGACGGGGGCCGUCUUCUG [tttttgagapaired]	0.933
UUUUUUUUUUGAGAGGGGGCCCUUCUCCAG [tttttgagapaired]	0.674
UUUUUUUUUUGAGACGGCCACCGUCUCCAG [tttttgagapaired]	0.845
UUUUUUUUUUGAGACUGCGUCAGUCUCCGG [tttttgagapaired]	0.668
UUUUUUUUUUGAGAUGGCAUCCAUCUUCUA [tttttgagapaired]	-0.0735
UUUUUUUUUUGAGACAUGGAUAAUAAAAAA [ttttgagaunpaired]	-0.117
UUUUUUUUUUGAGAGCGAGACGUUCUCCGG [tttttgagapaired]	0.161
GUGGUUGGUGUUGGAUCCUAACACCGACCG [gtspaired]	-0.785
UUUUUUUUUUGAGAUGGACACUAUCUCCAG [tttttgagapaired]	0.415
UUUUUUUUUUGAGACGGAUGCCGUCUUCUG [tttttgagapaired]	0.726
UUUUUUUUUUGAGACGGAAGCCGUCUCCUA [tttttgagapaired]	0.301

Sequence	binding signal (log2 fold change)
UUUUUUUUUUGAGACUGACACAGUCUUCUG [tttttgagapaired]	0.397
UUUUUUUUUUGAGAACGAAACGUUCUCCGG [tttttgagapaired]	-0.0874
UUUUUUUUUUGAGACUGCGACAGUUUCCAG [tttttgagapaired]	0.529
UUUUUUUUUUGAGACGGUAGCCGUUUCCUG [tttttgagapaired]	0.613
UUUUUUUUUUGAGACCGAAACGGUUUCCGG [tttttgagapaired]	0.472
UUUUUUUUUUGAGAUGGGCUCCAUCUCCAG [tttttgagapaired]	0.383
UUUUUUUUUUGAGACUGUUGCAGUCUUCUA [tttttgagapaired]	0.366
GUGUGGUGUGUUGGCCUCUAACACAUCGCA [gtspaired]	-0.804
UUUUUUUUUUGAGAGGGGUCCCUUCUCCAG [tttttgagapaired]	0.796
UUUUUUUUUUGAGAUCGGUACGAUCUUCUA [tttttgagapaired]	0.595
UUUUUUUUUUGAGACGGAGACCGUCUCCAG [tttttgagapaired]	0.495
UUUUUUUUUUGAGAGUGAGACACUCUUCUG [tttttgagapaired]	0.173
UUUUUUUUUUGAGAACGGACCGUUCUCCUA [tttttgagapaired]	0.443
UUUUUUUUUUGAGAGGGUGGCCCUCUCCAG [tttttgagapaired]	0.935
UUUUUUUUUUGAGACUGCGACAGUCUCCAG [tttttgagapaired]	0.559
GGUGUGUGUGUUGGAGUCUAACACAUACGC [gtspaired]	-0.717
UUUUUUUUUUGAGACGGAAUCUGUCUCCUG [tttttgagapaired]	0.395
UUUUUUUUUUGAGAGGGGGACCCUCUCCGG [tttttgagapaired]	0.408
UUUUUUUUUUGAGAGCGAUGCGCUCUUCUG [tttttgagapaired]	0.253
UUUUUUUUUUGAGAAGGGGCCCUUCUCCAG [tttttgagapaired]	0.217
UUUUUUUUUUGAGACGGGGACCGUCUCCUG [tttttgagapaired]	0.566
UUCCUCUCUCCUCCGCGGGAGGGGGGAGGA [ctspaired]	-0.411
UUUUUUUUUUGAGAUGGGACCCAUCUUCUG [tttttgagapaired]	0.55
UUUUUUUUUUGAGACGGACUCCGUCUUCUG [tttttgagapaired]	0.639
UUUUUUUUUUGAGAGGGUGCCCCUCUCCGG [tttttgagapaired]	0.579
GUGGUGUGUGUUGGUGUCUAACACACAUCG [gtspaired]	-0.808

Sequence	binding signal (log2 fold change)
UUUUUUUUUUGAGAGGGAAACCCUUUCCAG [tttttgagapaired]	0.0642
GUGUGUUGUGUUGGUCUCUAACACAACGCA [gtspaired]	-0.138
GUUGUGUGUGUUGGCGUCUAACACACGCAG [gtspaired]	-0.728
GUGUGUGGUGUUGGACUCUAACACCAUACA [gtspaired]	-0.519
UUUUUUUUUUGAGAGCGGUGCGCUCUUCUG [tttttgagapaired]	0.211
GUGUGUUGUGUUGGAGCCUAACACAACGCG [gtspaired]	-0.736
GUGGUGUGUGUUGGAGUCUAACACAUACCA [gtspaired]	-0.404
GUGUGGUGUGUUGGCCUCUAACACACCGCA [gtspaired]	-0.426
GUUGUGUGUGUUGGUCCCUAACACACACAG [gtspaired]	-0.563
UUUUUUUUUUGAGAGUGAGACACUCUCCGG [tttttgagapaired]	0.102
GUGUGUGGUGUUGGUGUCUAACACCGCACG [gtspaired]	-0.584
GUGUGUGGUGUUGGUACCUAACACCGCGCA [gtspaired]	-0.564
GUUGGUGGUGUUGGACUCUAACACCAUCAA [gtspaired]	-0.424
GGUUGUGGUGUUGGUGUCUAACACCGCGAC [gtspaired]	-0.795
UUUUUUUUUUGAGACCGGGUCGGUCUUCUA [tttttgagapaired]	0.452
GGUGUGUGUGUUGGUUCCUAACACAUACGC [gtspaired]	-0.489
GUGGUGUGUGUUGGCAUCUAACACACAUCA [gtspaired]	-0.685
GGUUGUUGUGUUGGAGUCUAACACAGCAAC [gtspaired]	-0.69
GUGGUUGGUGUUGGCCUCUAACACCGACUA [gtspaired]	-0.554
UUUUUUUUUUGAGACCGCAACGGUCUCCGG [tttttgagapaired]	0.439
UUUUUUUUUUGAGACGGAGGCCGUCUCCGG [tttttgagapaired]	0.839
UUUUUUUUUUGAGAUGGCCACCAUCUCCGG [tttttgagapaired]	0.722
UUUUUUUUUUGAGAUCGGGGCGAUCUCCUA [tttttgagapaired]	0.169
UUUUUUUUUUGAGAUGGAAUCCAUUUCCUA [tttttgagapaired]	-0.302
UUUUUUUUUUGAGACGGAUACCGUCUCCUG [tttttgagapaired]	0.3
